# Measurements published in PubChem BioAssay AID686978 (National Center for Advancing Translational Sciences (NCATS), 2013).
# Hit rate of the full screen: of about 420,000 compounds, about 64,000 (15%) were called active. The shares of active, inactive and inconclusive entries below differ from those in the screen. Calls come from the whole dose curve; as a rule, active = well fitted inhibition curve with a large enough effect; inconclusive = small, poorly fitted or top-dose-only effect; inactive = flat fitted curve, though single readings scatter. Potencies of inconclusive entries are left out as doubtful fits.
# Assay: qHTS for Inhibitors of human tyrosyl-DNA phosphodiesterase 1 (TDP1): qHTS in cells in absence of CPT; note: nearly all actives have a fitted effect of over 55% in size
# Conditions: DT40 Tdp1-/- hTDP1 cells, no CPT, ATP luminescence, 48 h; activity change, negative = growth inhibition: at 46.2 µM (top of the series) unless noted
# Outline: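 Stably hTDP1-transfected Tdp1-null chicken DT40 cells were treated with library compounds minus camptothecin and grown for at least 48 hr at 37 °C, after which cellular ATP was quantified by luminescence.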
# % is set by controls: 0 for no effect and ±100 for the full control effect; potency is the fitted concentration of half-maximal effect; tags give direction and shape of the fitted curve.
SMILES,Potency,"activity change, negative = growth inhibition"
C=CCN1C(=O)S/C(=C/c2ccc(Sc3nc4ccccc4[nH]3)o2)C1=O,active: 20.6 µM,
CCOC(=O)c1c(N2CCCCC2)c2ccccc2[nH]c1=O,"inconclusive [inhibitor, single point]",
O=C(Nc1ccc(F)c(Cl)c1)c1csc([C@@H]2C[C@H](O)[C@@H](CO)O2)n1,,inactive: -26%
COc1cccc(-c2ncnn2-c2sc3c(c2C#N)CCCCC3)c1OC,"inconclusive [inhibitor, single point]",
O=C(COc1ccc(Cl)cc1)Nc1nnc(S(=O)(=O)N2CCc3ccccc32)s1,active: 18.4 µM,
C/C(=N\Nc1ccc(S(=O)(=O)Nc2ccc(Cl)cc2)cc1[N+](=O)[O-])c1ccc(N2CCOCC2)cc1,"inconclusive [inhibitor, single point]",
CCN(Cc1ccccc1)S(=O)(=O)CCNC(=O)c1ccccc1,,inactive: -13.4%
CC(/C=N/NC(=O)CSc1n[nH]c(=O)[nH]c1=O)=C\c1ccccc1,,inactive: 19.2%
N#CCC(=O)Nc1ccc(C(=O)OCC(=O)c2ccc3c(c2)OCCO3)cc1,active: 18.4 µM,
CCOc1ccc(S(=O)(=O)N2CCN(C(=O)C3CC3C)CC2)cc1 (stereo unspecified),"inconclusive [inhibitor, single point]",
O=C(COc1ccccc1Cl)Nc1ccc2oc(=O)ccc2c1,,inactive: 3.42%
Cc1sc(NC(=O)CSc2nnnn2C2CCCC2)c(C#N)c1C,,inconclusive: -36.6% [inhibitor]
COc1ccc(OC)c(NC(=O)Nc2ccc(O)c3ccccc23)c1,active: 4.61 µM,
Cc1cc(C(F)(F)F)nn1CC(=O)N(C)C1CCCCC1,"inconclusive [inhibitor, single point]",
COc1ccc(-c2csc(N3CCN(S(=O)(=O)c4ccc5c(c4)NC(=O)CO5)CC3)n2)cc1,"inconclusive [inhibitor, single point]",
CCOc1ccc(CCNC(=O)c2cn(C)c3ccc(S(=O)(=O)N4CCCCCC4)cc3c2=O)cc1OCC,"inconclusive [inhibitor, single point]",
Cc1nn(CC(=O)N2CCC(C)CC2)c(=O)c2cc3sccc3n12,,inactive: -27.6%
O=C(C[n+]1cccc(I)c1)c1ccc(F)cc1,,inactive: -28.2%
FC(F)(F)c1ccccc1-c1nccc(N2CCNCC2)n1,,inactive: 3.48%
CC1CC(c2ccccc2)=Nc2ccccc2N1 (stereo unspecified),"inconclusive [inhibitor, single point]",
Cc1ccc(OCC(=O)NCCNC(=O)COc2ccc(C)cc2)cc1,,inconclusive: -14.6% [inhibitor]
O=C(CCc1ccccc1)NCC1OCCc2ccccc21 (stereo unspecified),"inconclusive [inhibitor, single point]",
COc1ccc(CNc2nc3c(-c4cccc(C)c4)nnn3c3ccccc23)cc1,"inconclusive [inhibitor, single point]",

SMILES,Potency,"activity change, negative = growth inhibition"
CCOc1ccc(NC(=O)c2cnc(N3CCCC3)nc2C)cc1,"inconclusive [inhibitor, single point]",
Cc1cc(=O)[nH]c(SCC(=O)N(CCC#N)c2ccccc2)c1C#N,,inactive: -5.08%
CCCC(C(=O)NC1CCCC1)N(Cc1ccc(F)cc1)C(=O)c1snc(C(N)=O)c1N (stereo unspecified),,inactive: -86.5%
C[C@]12C=C[C@H](O)CC1=CCC1C2CC[C@@]2(C)C1CCC21OCCO1 (stereo partly specified),"inconclusive [inhibitor, single point]",
CCOC(=O)c1c(C)[nH]c(C)c1S(=O)(=O)N(C)CC(=O)N1CCN(c2ccccc2)CC1,"inconclusive [inhibitor, single point]",
Cc1cc(C(=O)COC(=O)c2cc(O)c3ccccc3c2O)c(C)n1CC1CCCO1 (stereo unspecified),"inconclusive [inhibitor, single point]",
COc1cc(/C=C/C(=O)N(C)CC(=O)Nc2ccccc2SC)cc(OC)c1OC,,inconclusive: -35.5% [inhibitor]
CC(C)c1ccc(NC(=O)Cn2cc(S(=O)(=O)N3CCN(c4ccccc4F)CC3)c3ccccc3c2=O)cc1,"inconclusive [inhibitor, partial curve, poor fit]",
CCN(Cc1cccs1)C(=O)CN1C(=O)NC(c2ccccc2)(c2ccccc2)C1=O,"inconclusive [inhibitor, single point]",
O=C(O)CCC(=O)N1CCN(c2ncccc2C(F)(F)F)CC1,,inactive: 33.4%
CN(CCCS(=O)(=O)[O-])c1ccc(/C=C/c2ccc3ccccc3[n+]2C)cc1,,inconclusive: -31.6% [inhibitor]
N#CC1=C(N)C2=CCCC[C@H]2[C@H](c2cccc(F)c2)C1(C#N)C#N,"inconclusive [inhibitor, partial curve]",
CC(C)C(c1nnnn1Cc1ccc(F)cc1)N1CCN(Cc2ccc3c(c2)OCO3)CC1 (stereo unspecified),"inconclusive [inhibitor, single point]",
CC1(C)C2CCC(C2)C1C/C=N/NC(N)=S (stereo unspecified),"inconclusive [inhibitor, partial curve]",
CC(C)C[C@@]12C(=O)N(c3ccc(Br)cc3)C(=O)N1[C@H](c1ccc(Br)cc1)[C@@H]1C(=O)N(C(C)(C)C)C(=O)[C@@H]12,"inconclusive [inhibitor, single point]",
COc1cccc(NC(=S)N2CCCC2c2ccc(OC)c(OC)c2)c1 (stereo unspecified),active: 29.1 µM,
CCOc1cc(-c2nnc(-c3ccco3)o2)cc(OCC)c1OCC,active: 11.6 µM,
O=C(OCc1ccccc1)N1CCCC2CC1c1ccccc12 (stereo unspecified),"inconclusive [inhibitor, partial curve]",
O=C(O)CSc1c[nH]c2ccccc12,,inactive: -10.6%
CCSc1nnc(NC(=O)CSc2nc3c(c(=O)n2CC)SC(C)C3)s1 (stereo unspecified),active: 8.2 µM,
Cc1c(Cl)cccc1NC(=S)Nc1ccc2[nH]c(=O)[nH]c2c1,,inactive: -1.33%
CCCNC(=O)CCc1nnc2ccc(N3CCN(c4cccc(OC)c4)CC3)nn12,"inconclusive [inhibitor, partial curve]",
Cc1cc2nc(-c3ccc(SCC(=O)N4CCN(C(=O)c5ccco5)CC4)nc3)[nH]c2cc1C,"inconclusive [inhibitor, partial curve]",
